Source: article PMC4336329 (PLoS ONE, 2015)
In all, about 310,000 compounds went through this assay and about 14,000 (4.5%) showed an effect of 50% or more. The effect is printed as a negative number. Some of the results follow.

Biological target: human ether-à-go-go-related gene (hERG) potassium channel (human, UniProt Q12809)
Assay: primary screen, population patch clamp on CHO cells stably expressing hERG
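Note: peak tail current of the secondary pulse compared with the same well before compound.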

Chain of human ether-à-go-go-related gene (hERG) potassium channel (Q12809 whole entry, looked up): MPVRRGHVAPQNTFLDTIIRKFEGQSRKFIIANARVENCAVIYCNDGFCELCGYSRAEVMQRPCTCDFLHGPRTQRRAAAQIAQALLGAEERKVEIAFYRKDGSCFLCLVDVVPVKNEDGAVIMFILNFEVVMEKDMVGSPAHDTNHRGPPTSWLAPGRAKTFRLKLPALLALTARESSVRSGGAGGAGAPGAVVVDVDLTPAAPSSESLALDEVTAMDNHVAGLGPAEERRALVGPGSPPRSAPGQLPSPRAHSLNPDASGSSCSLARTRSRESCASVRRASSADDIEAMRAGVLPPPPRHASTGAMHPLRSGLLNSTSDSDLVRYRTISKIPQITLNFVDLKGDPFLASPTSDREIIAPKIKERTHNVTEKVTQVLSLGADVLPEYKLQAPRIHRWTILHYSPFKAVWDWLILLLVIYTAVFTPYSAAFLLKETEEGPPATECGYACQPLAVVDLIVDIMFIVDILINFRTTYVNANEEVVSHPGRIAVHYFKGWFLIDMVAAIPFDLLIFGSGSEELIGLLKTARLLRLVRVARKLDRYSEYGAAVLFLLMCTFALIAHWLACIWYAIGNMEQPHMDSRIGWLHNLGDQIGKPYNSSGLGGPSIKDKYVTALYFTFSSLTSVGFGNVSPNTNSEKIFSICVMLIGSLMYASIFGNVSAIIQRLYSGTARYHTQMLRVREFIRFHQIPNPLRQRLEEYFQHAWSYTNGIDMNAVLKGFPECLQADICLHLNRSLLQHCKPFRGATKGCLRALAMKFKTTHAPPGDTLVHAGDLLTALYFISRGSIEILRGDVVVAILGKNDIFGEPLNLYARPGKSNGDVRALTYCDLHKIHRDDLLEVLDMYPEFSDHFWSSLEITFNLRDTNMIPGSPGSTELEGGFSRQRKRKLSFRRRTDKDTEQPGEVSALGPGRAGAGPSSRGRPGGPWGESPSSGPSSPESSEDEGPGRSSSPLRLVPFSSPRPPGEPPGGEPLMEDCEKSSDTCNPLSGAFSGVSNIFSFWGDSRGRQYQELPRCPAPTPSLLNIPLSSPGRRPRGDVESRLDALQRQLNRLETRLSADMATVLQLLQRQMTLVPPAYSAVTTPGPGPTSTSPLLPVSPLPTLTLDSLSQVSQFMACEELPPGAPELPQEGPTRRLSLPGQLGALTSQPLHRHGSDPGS

Row | Compound | hERG current change (%, negative = inhibition) at 10uM [%]
1 | CCCCCSc1cc(O)c(C(CNC)C(C)C)cc1OC.O=C(O)/C=C\C(=O)O (stereo not shown) | -12.9
2 | Cn1cnnc1SCC(=O)N/N=C/c1ccc(OCC(N)=O)cc1 | 14
3 | CCOc1c(Cl)cc(CNCC(C)C)cc1Cl.Cl | -4.82
4 | O=[N+]([O-])c1cccc(-c2ccn[nH]2)c1 | 10.5
5 | CCOC(=O)N1CCN(C(=O)C2CCCN(Cc3nc(-c4ccc(Cl)cc4)oc3C)C2)CC1 (stereo not shown) | -70.9
6 | COC(=O)CC1C(=O)NC2CCCCC2N1C(=O)CCl (stereo not shown) | 14.9
7 | Cc1cccc(NC(=O)CN2C(=O)N/C(=C/c3ccc(C)s3)C2=O)c1 | 8.71
8 | CC(OC(=O)C1CCN(S(=O)(=O)c2ccc(F)cc2)CC1)C(=O)NC1CCCCC1C (stereo not shown) | 7.77
9 | CC(C(=O)Nc1ccc(S(N)(=O)=O)cc1)N1CCc2ccccc21 (stereo not shown) | 10.3
10 | COc1ccc(Cn2c(=S)[nH]c3cc(C(=O)N4CCCCC4)ccc3c2=O)cc1 | 13.3
11 | c1ccc(-c2nc3c(ccc4ccccc43)[nH]2)nc1 | 0.315
12 | O=C(NN1CCOCC1)C12CC3CC(CC(C3)C1)C2 | 7.45
13 | COc1ccccc1C(=O)Oc1cc(N)n(S(=O)(=O)c2ccc(C)cc2)n1 | -7.77
14 | CCN1CCN(CCOc2cccc(Oc3ccccc3)c2)CC1.O=C(O)C(=O)O | -61.1
15 | Cc1ccc(C(=O)CSc2nc(-c3ccccc3)ccc2C#N)cc1 | 2.56
16 | O=C(c1cccc(S(=O)(=O)N2CCCCC2)c1)N1CCN(c2ccccc2)CC1 | -73.1
17 | O=C(Nc1ccccc1C(=O)NC(Cc1ccccc1)C(=O)NC1CCCCC1)c1ccccc1 (stereo not shown) | 0.583
18 | COc1ccc(NS(=O)(=O)c2cccc(C(=O)NNC(=O)CNC(=O)c3ccccc3)c2)cc1 | 13.4
19 | Cc1ccc(NC(=O)C2(c3ccccc3)CC2(Cl)Cl)cc1C (stereo not shown) | 13
20 | N#CC1=C(S)N=C(N)C(c2nc(-c3ccccc3)cs2)C12CCCC2 (stereo not shown) | 6.39
21 | CCOC(=O)C1CCCN(S(=O)(=O)c2c(C)noc2C)C1 (stereo not shown) | 0.934
22 | COc1ccc(-c2nc(CCl)cs2)cc1OC.Cl | -12.5

Row | Compound | hERG current change (%, negative = inhibition) at 10uM [%]
23 | COc1ccc(/C=N/NC(=O)NC23CC4CC(CC(C4)C2)C3)c(OC)c1 | 20.1
24 | O=[N+]([O-])c1ccc(CS(=O)(=O)N2CCN(c3ccccc3)CC2)cc1 | 9.29
25 | COc1ccc(-c2noc(CCC(=O)NCCc3ccccc3)n2)cc1OC | 13.9
26 | Cl.O=C(CNCC1CCCCC1)Nc1ccc(OC(F)(F)F)cc1 | -62.4
27 | Cc1ccc(-n2nc3c(=O)n(CCCC(=O)NCC(C)c4ccccc4)nc(C)c3c2C)cc1 (stereo not shown) | -38.1
28 | COc1ccccc1CC1(C)NC(=O)N(CC(=O)N2CC(C)OC(C)C2)C1=O (stereo not shown) | 9.11
29 | CCOc1ccc(OCc2ccc(C(=O)NC(C)(C)C)o2)cc1 | 7.35
30 | CCC(C)COC(c1ccccc1)(c1ccccc1)C(Oc1nc(C)cc(C)n1)C(=O)O (stereo not shown) | 14.6
31 | CN(C)CCn1nnnc1SCC1=C(C(=O)O)N2C(=O)[C@@H](NC(=O)Cc3csc(N)n3)[C@H]2SC1.Cl | 19.8
32 | CC(C)=CC(=O)OCC(=O)Nc1ncc(Cl)c(C)c1Cl | -0.811
33 | CC(=O)O[C@@]1(C)C[C@@H](O)[C@]2(O)C=CO[C@@H](O[C@@H]3O[C@H](CO)[C@@H](O)[C@H](O)[C@H]3O)[C@@H]21 | 16.5
34 | NC(=O)C1CCN(Cc2cccc(OCc3ccccc3)c2)CC1.O=C(O)C(=O)O | -12
35 | C=CCn1c(N)c(C(=O)Nc2cccc(C)c2)c2nc3ccccc3nc21 | 22.6
36 | CC(C)CCNC(=O)CCS(=O)(=O)c1cccc2nonc12 | 12.8
37 | Br.COc1ncnc2c1N=C1CC(C)(C)CC(N)=C1S2 | -10.4
38 | Cc1ccc(NC(=O)c2ccc(NCCCN3CCC(C)CC3)c([N+](=O)[O-])c2)cc1F.Cl | -8.31
39 | CC(=O)c1ccc(-n2c(CCC(=O)O)ccc2-c2ccc(Cl)cc2)cc1 | 8.55
40 | Cc1cc(C)cc(NC(=S)N(CCN(C)C)C(C)c2cccnc2)c1 (stereo not shown) | -31.7
41 | COc1ccccc1C(=O)N1CCC(C(=O)c2ccc(F)cc2)CC1 | -3.13
42 | O=C(Nc1cccc(C(F)(F)F)c1)c1cccnn1 | -20.1
43 | CSCCC(NS(=O)(=O)c1ccc(Cl)cc1)C(=O)OCC(=O)NC1CC1 (stereo not shown) | 1.29
44 | C/C(=N\NC(=O)c1ccc2c(c1)OCO2)c1ccc(O)cc1 | 13.1

Row | Compound | hERG current change (%, negative = inhibition) at 10uM [%]
45 | Cc1ccc(NS(=O)(=O)c2ccccc2Cl)c2c1CC(C)(C)O2 | 1.03
46 | Cc1ccc(S(=O)(=O)NC(CC(=O)NC2CCCC2)c2ccco2)cc1 (stereo not shown) | -3.68
47 | COc1ccc(NC2=CC(c3cccc(OC)c3)N(c3ccc(OC)cc3)C2=O)cc1 (stereo not shown) | 1.72
48 | CC(C)(C)/C=N/NC(=O)CNC(=O)c1ccc2c(c1)OCCO2 | 15.6
49 | O=[N+]([O-])c1ccc2c(c1)C(c1ccccc1)=NCCN2 | -69.1
50 | COc1ccccc1S(=O)(=O)Nc1ccc(S(=O)(=O)Nc2nccs2)cc1 | -0.444
51 | Cc1ccc2c(c1)-c1ncc(C(=O)c3cc(Br)ccc3O)cc1CO2 | 15.7
52 | O=C(CC1SC(=NCc2ccccc2)NC1=O)Nc1ccccc1 (stereo not shown) | 10.8
53 | Cc1csc(NC(=O)CNC(=O)OCc2ccccc2)n1 | 1.19
54 | CCOc1ccccc1CN1CCC(O)CC1 | 12.1
55 | Cc1oc2cc3oc(=O)c(CCC(=O)NCCC(=O)O)c(C)c3cc2c1C | 35.9
56 | CCCCc1cc2ccccc2c(OCCN(C)C)n1.Cl | -61.9
57 | CCOc1ccc(N2C(=O)C3ON(c4ccccc4)C(c4ccco4)C3C2=O)cc1 (stereo not shown) | 2.11
58 | S=C(NCCc1ccccc1)NC1CC1 | 24.3
59 | Cc1ccc(-c2nnn(CC(=O)N(Cc3cccs3)C(C(=O)NC(C)(C)C)c3ccc(C)o3)n2)o1 (stereo not shown) | -12
60 | Cc1c(C(=O)Nc2cccc(F)c2)cnn1-c1ccccc1 | -3.78
61 | CCc1ccc(C(C)NC(=O)C2CCCC2)cc1 (stereo not shown) | 13.1
62 | O=S1(=O)C=C(Sc2nc3ccccc3s2)c2ccccc21 | 6.92
63 | COc1ccc2oc(C(=O)OCc3c(C)noc3C)c(C)c2c1 | 14.2
64 | CC(=O)O/C(=C\c1cn(C(C)=O)c2ccccc12)C(=O)O | 18.8
65 | CNc1oc(-c2ccco2)nc1C#N | -24.9
66 | CC(C)(C)S(=O)(=O)c1cnc2c(S(=O)(=O)c3ccccc3)cnn2c1N | -9.97

Row | Compound | hERG current change (%, negative = inhibition) at 10uM [%]
67 | COc1ccc(CN(Cc2ccccn2)C(=O)CN2C(=O)C(C)Oc3ccccc32)cc1 (stereo not shown) | -3.36
68 | CCOC(=O)NC(NC(=S)Nc1ccccc1OC)C(Cl)(Cl)Cl (stereo not shown) | 21.1
69 | CCOC(=O)n1ccc(C(=O)Nc2ccccc2F)n1 | 4.37
70 | Cc1ccc2c(c1)nnn2C1CCN(CC(=O)N2CCN(c3ccc(F)cc3)CC2)CC1 | -70.3
71 | COc1ccc(OCc2nnc(SCC(=O)Nc3cccc(C(C)=O)c3)o2)cc1 | 4.32
72 | COc1ccccc1NC(=O)Cn1c([N+](=O)[O-])cnc1C | 11
73 | Cn1c(CCN2CCOCC2)nc2cc(NC(=O)c3cccs3)ccc21 | -19
74 | CN(C)/C(=N\S(=O)(=O)c1ccc(F)cc1)c1ccccc1 | 13
75 | O=C(NC1C(=O)NNC1c1ccccc1)c1ccccc1 (stereo not shown) | -13.1
76 | COC(=O)C1=C(c2ccc(S(C)(=O)=O)cc2)C[C@@H]2CC[C@H]1N2C(=O)N1CCCCC1 | -1.44
77 | COc1ccc(NC(=O)CCC2CCCC2)cc1OC | -1.47
78 | O=C(O)CSCC(=O)Nc1ccccc1 | -0.892
79 | Cc1cc(C)c(C(=O)Nn2c(C)nc3ccccc3c2=O)cc1C | -26.7
80 | COc1ccccc1C1C(C(N)=O)=C(C)Nc2nc(CCCO)nn21 (stereo not shown) | 14.2
81 | COCCNC(=O)NC(=O)COC(=O)C12CC3CC(CC(NC(C)=O)(C3)C1)C2 | 14.3
82 | O=S(=O)(c1ccccc1)N1N=C(c2ccc(O)cc2)CC1c1ccco1 (stereo not shown) | -0.0746
83 | COC(=O)c1cc(=O)n(Cc2ccc3c(c2)OCO3)c(=Nc2ccc(F)c(Cl)c2)s1 | 17.7
84 | O=c1cc2ncc(-n3cc([N+](=O)[O-])cn3)cn2[nH]1 | 15.6
85 | Cc1cccc(N2CCN(C(=O)c3ccc4c(c3)OCCO4)CC2C)c1 (stereo not shown) | -2.67
86 | Cc1nnc(NC(=O)C23CC4CC(CC(C4)C2)C3)s1 | 20.2
87 | COc1ccc(CNc2nc(-c3cccnc3)nn2C(C)=O)cc1 | -6.28
88 | COC(=O)c1cc(OC)c(OC)cc1NC(=S)Nc1cc(Cl)ccc1OC | 11.2
